Reference: PubChem BioAssay AID1745853 (National Center for Advancing Translational Sciences (NCATS), 2022)
Some of the results follow. Further columns of the screen follow, without active or inactive calls.

Experiments:
Assay in all cases: Primary Screen for Target Class Profiling of Small Molecule Inhibitors of Methyltransferases
[1] = molecular target: Glycine N-methyltransferase (Homo sapiens) (UniProt Q14749); settings: purified enzyme, MTase-Glo SAH luminescence; measured here: GNMT inhibition; at 40 µM; stronger effect = lower value
In short: (§1)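 Each enzyme was reacted with SAM and its substrate, with compounds tested once at 40 uM; SAH formed was read by MTase-Glo luminescence.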

[2] = molecular target: Guanidinoacetate N-methyltransferase (Homo sapiens) (UniProt Q14353); settings: purified enzyme, MTase-Glo SAH luminescence; measured here: GAMT inhibition; at 40 µM; stronger effect = lower value
In short: as §1

[3] = molecular target: Histamine N-methyltransferase (Homo sapiens) (UniProt P50135); settings: purified enzyme, MTase-Glo SAH luminescence; measured here: HNMT inhibition; at 40 µM; stronger effect = lower value
In short: as §1

[4] = molecular target: Nicotinamide N-methyltransferase (Homo sapiens) (UniProt P40261); settings: purified enzyme, MTase-Glo SAH luminescence; measured here: NNMT inhibition; at 40 µM; stronger effect = lower value
In short: as §1

[5] = molecular target: Phenylethanolamine N-methyltransferase (Homo sapiens) (UniProt P11086); settings: purified enzyme, MTase-Glo SAH luminescence; measured here: PNMT inhibition; at 40 µM; stronger effect = lower value
In short: as §1
On the % scale 0 is the no-effect control and ±100 the full control effect.

SMILES | activity change, negative = inhibition [1] | activity change, negative = inhibition [2] | activity change, negative = inhibition [3] | activity change, negative = inhibition [4] | activity change, negative = inhibition [5]
COc1cccc(CN2C(=O)c3ccc(-c4ccccc4)n3CC2(C)C(=O)NC2CCCCC2)c1 (configuration not stated) | 5.02% | 0.893% | 7.14% | 0.075% | 3.89%
COc1cc(C(=O)N[C@@H]2[C@@H](c3ccccc3)[C@@H](CO)N3CCCC[C@H]23)cc(OC)c1OC | -7.4% | -1.08% | -0.083% | -0.593% | 0.774%
CCCn1c(=O)c2ccc(Cl)cc2n2c(=O)n(Cc3c(F)cccc3Cl)nc12 | 3.5% | 0% | 10.6% | 3.2% | 4.08%
CN1C(=O)c2cc(C(=O)NCCCc3ccccc3)nn2CC1(C)C(=O)NCc1ccccc1 (configuration not stated) | 3.99% | 4.69% | -1.21% | 4.04% | -0.511%
O=S(=O)(Cc1noc([C@@H]2C[C@@H](O)CN2CC2CC2)n1)c1ccc(F)cc1 | 0.098% | 0.634% | 2.99% | -5.86% | 18%
COc1cc(/C=C(\C#N)C(=O)c2ccc(O)c(O)c2)cc(I)c1O | -55.8% | -5.89% | -15.1% | -17.4% | -6.98%
CC(C(=O)NCc1ccccc1)n1ccc2cc(S(=O)(=O)N3CCCCC3)ccc21 (configuration not stated) | -1.71% | 0.503% | -1.95% | -7.29% | -1.76%
COC[C@@H]1CN(Cc2cn[nH]c2-c2ccccc2)C[C@H]1c1nc(C)no1 | -9.76% | -2.46% | 1.33% | -10.1% | -1.85%
CC(=O)OC1(C)CC(O)C2(O)C=COC(OC3OC(CO)C(O)C(O)C3O)C12 (configuration not stated) | 0% | 9.48% | 7.39% | -1.81% | 7.97%
Cc1ncc([N+](=O)[O-])n1C[C@H](O)CN1CCOCC1 | 5.65% | 8.43% | 2.42% | -12.4% | -3.07%
Cc1cccc2c(C(=O)Nc3ccc4c(c3)C(=O)N(C)C3=NCCN34)cc(-c3ccccc3)nc12 | 2.22% | 0% | 0.947% | 2.26% | 2.45%
C[C@H]1CCN2C[C@]34C[C@@]5(C(=O)Nc6c5ccc5c6OC=CC(C)(C)O5)C(C)(C)C3C[C@]12C(=O)N4C (some centres not stated) | 0% | 6.14% | 10% | -21.1% | 0.088%
COc1cccc(C(=O)N2CCCC(COc3ccccc3C(=O)N3CCOCC3)C2)c1 (configuration not stated) | -5.89% | -4.42% | -4.88% | -9.04% | 11%
CC(C)(C)c1cc(C[C@@H]2C[C@H](NS(C)(=O)=O)C2(C)C)no1 | -3% | -2.15% | -1.63% | -6.66% | -0.865%
CCCC1c2cccn2CCN1C(=O)Nc1cc(Cl)c(OC)cc1OC (configuration not stated) | 0.428% | 0.665% | -32.8% | -0.113% | 2.9%
O=C(O)c1cc2cccc([N+](=O)[O-])c2[nH]1 | -5.61% | -4.29% | 1.65% | -15.3% | -2.07%
CCCCCOC(=O)Nc1nc(=O)n(C2O[C@H](C)[C@@H](O)[C@H]2O)cc1F (some centres not stated) | 5.88% | – | 11.4% | – | –
CCCN1C(=O)c2c(C(=O)Nc3ccccc3Cl)ncn2CC1(C)C(=O)NCc1ccc(C)cc1 (configuration not stated) | -12.4% | 1.37% | -5.02% | -7.56% | -4.29%
Cc1ccc(C(N)=O)cc1Nc1nccc(-c2cn(C(C)C)c3cnccc23)n1 | -81.1% | -43.2% | -81.8% | -72.4% | -67.5%
CC1CCCC(NC(=O)Cn2c(=O)oc3cc(S(=O)(=O)NCc4ccccc4)ccc32)C1C (configuration not stated) | -4.42% | -0.677% | -8.33% | -3.69% | -10.8%

SMILES | activity change, negative = inhibition [1] | activity change, negative = inhibition [2] | activity change, negative = inhibition [3] | activity change, negative = inhibition [4] | activity change, negative = inhibition [5]
CCc1ccccc1N1C(=O)c2c(C(=O)OC)ncn2CC1(C)C(=O)NCc1ccccc1 (configuration not stated) | -7.17% | 0.186% | -4.51% | -2.84% | -4.12%
CCN1CCN(S(=O)(=O)c2cc(-c3nnc(-c4ccccc4)o3)ccc2OC)CC1 | 1.63% | 3.85% | 2.41% | 0.352% | 1.72%
Cc1ccc(C)c(Cn2nc3n(CC(C)C)c(=O)c4ccc(C(=O)NC(C)C)cc4n3c2=O)c1 | 4.16% | 0% | 4.57% | 1.04% | 3.37%
Cc1nn(C(=O)CCC(=O)N2CCC(Cc3nncn3CC3CC3)CC2)c2ccccc12 | -7.08% | -4.37% | -3.55% | -76.2% | -5.71%
Cc1cc(C)cc(N2C(=O)c3cc4occc4n3CC2(C)C(=O)NC2CCCCC2)c1 (configuration not stated) | 2.96% | 6.85% | 0.819% | 8.44% | 1.85%
O=C(Nc1ccc(F)c(Cl)c1)c1cnc(-c2ccccc2)nc1-c1ccncc1 | -2.98% | 0.393% | 0.949% | -5.39% | 11.8%
O=C(NCc1cccc(O)c1)Nc1nc(-c2ccncc2)cs1 | -21.8% | -7.25% | -11.8% | -28.3% | -17.5%
CCC1(C(=O)NCCc2ccccc2)CCCCC(=O)N1 (configuration not stated) | -0.521% | -1.12% | -0.053% | -6.22% | -5.92%
C=C[C@@](C)(CCC=C(C)C)O[C@@H]1O[C@H](CO[C@@H]2OC[C@H](O)[C@H](O)[C@H]2O)[C@@H](O)[C@H](O)[C@H]1O | 3.1% | 3.44% | 4.08% | -8.54% | 5.31%
C=CCCOC(=O)N1C[C@@H](CO)[C@@H]2Oc3ccc(Cl)cc3[C@@H]21 | -4.72% | -2.36% | -2.26% | -12.4% | -1.02%
COc1cc(C(=O)NC2CCN(C)CC2)ccc1Nc1ncc2c(n1)N(C1CCCC1)CC(F)(F)C(=O)N2C | -29.9% | -28.2% | -50.5% | -71.1% | -58.1%
O=C(C1CCCC1)N1CCC(Oc2cccnc2)C1 (configuration not stated) | -1.84% | -3.45% | -1.84% | -19.6% | -0.854%
COC(=O)CCc1ccc(OCC(O)CNC(C)C)cc1 (configuration not stated) | 0.598% | -10.3% | -4.88% | -15.7% | -10.1%
CCOC(=O)c1oc2cc3sc(N4CCCCC4)nc3cc2c1C | -5.69% | 0.592% | 4% | 2.88% | -8.21%
Cc1cccc(C2c3cccn3-c3sc4c(c3CN2C(=O)Nc2ccc(F)cc2)CCCC4)c1 (configuration not stated) | -0.422% | 0% | -0.252% | -1.32% | 1.49%
COC(=O)c1cc2n(n1)CC(C)(C(=O)NC1CCCCC1)N(c1cc(Cl)ccc1C)C2=O (configuration not stated) | 1.59% | 0.863% | -12.7% | 1.39% | 0.693%
O=C1CN(Cc2ccc(Cl)cc2)S(=O)(=O)c2ccccc2N1Cc1ccccc1 | 4.9% | 0% | 2.54% | -0.953% | -0.191%
Nc1nc(O)c(C2=C3C(=Nc4ccccc43)C(=O)NCC2)[nH]1 | 3.52% | 6.49% | 11.4% | -10.6% | 7.17%
O=C(NCc1ccncc1)c1ccc2c(=O)nc3c(-c4cccc(F)c4)n[nH]n3c2c1 | -18.3% | 1.82% | -2.45% | -4.8% | -2.6%
